Source: the supplement of paper PMC6135742
Counter-ions that a name gives are not always drawn. ± gives the standard deviation of the averaged measurements. The full ranking holds about 2,600 compounds; the median of “MBP+ mature oligodendrocyte number relative to DMSO vehicle control” is about -0.34, and the highest 2% start at about 13. This is one part of the list.

test system: jimpy (Plp1 jimpy) mouse iPSC-derived oligodendrocyte progenitor cells; experiment: MBP+ mature oligodendrocyte number relative to DMSO vehicle control (SDs above negative control mean); higher = more surviving jimpy oligodendrocytes (rescue); settings: 10 µM; 3 days
Experimental: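 Primary phenotypic screen of >3,000 bioactive compounds (Selleck L1700 and Sigma LO1280 libraries) at a single dose of 10 µM. Compounds were added to jimpy (Plp1 mutant) mouse iPSC-derived OPCs at the start of thyroid hormone-induced oligodendrocyte differentiation, one well per compound in 384-well plates. After 3 days cells were stained for MBP, Sox10 and DAPI and imaged with an Operetta system. MBP+ oligodendrocyte number and total cell number were expressed as the number of SDs above the mean of the DMSO negative control on the same plate (n=16 control wells per plate). Hits were defined as >=4 SD for oligodendrocytes and >=2 SD for total cells.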

Going from CCCCCCCCCCCCCC(=O)O[C@@H]1[C@@H](C)[C@@]2(O)[C@@H](C=C(CO)C[C@]3(O)C(=O)C(C)=C[C@@H]23)[C@@H]2C(C)(C)[C@]12OC(C)=O [Phorbol 12-myristate 13-acetate] to C[N+](C)(C)CCCCCCCCCC[N+](C)(C)C [Decamethonium Bromide], the “MBP+ mature oligodendrocyte number” value rises from 0.182 to 3.28.

First: O=C(O[C@H]1C[C@H]2CC[C@@H](C1)[N+]21CCCC1)C(O)(c1ccccc1)c1ccccc1 [Trospium chloride]
Second: C[N+]1(C)[C@@H]2CC[C@H]1C[C@@H](OC(=O)C(CO)c1ccccc1)C2 (some centres undefined) [Atropine methyl nitrate]
The “MBP+ mature oligodendrocyte number” value of the first is higher: 2.24 for the first, -0.158 for the second.

Compared with COc1cc(-n2c(=S)[nH]c3ccccc3c2=O)c(Cl)cc1Cl [Mdivi-1], CC[C@@]1(O)C(=O)OCc2c1cc1n(c2=O)Cc2cc3ccccc3nc2-1 [Camptothecin] is lower in “MBP+ mature oligodendrocyte number” value: 3.7 for the first, less than -6.7 for the second.

Going from CCCN1C[C@H](CSC)C[C@@H]2c3cccc4[nH]cc(c34)C[C@H]21 [Pergolide mesylate] to CN1C[C@H](C(=O)N[C@]2(C)O[C@@]3(O)[C@@H]4CCCN4C(=O)[C@H](Cc4ccccc4)N3C2=O)C[C@@H]2c3cccc4[nH]cc(c34)C[C@H]21 [Dihydroergotamine methanesulfonate], the “MBP+ mature oligodendrocyte number” value rises from -2.36 to -1.8.

First: CCCN1C[C@H](CSC)C[C@@H]2c3cccc4[nH]cc(c34)C[C@H]21 [Pergolide methanesulfonate]
Second: CCCN1CCc2cccc3c2[C@H]1Cc1ccc(O)c(O)c1-3 [R(-)-Propylnorapomorphine hydrochloride]
The “MBP+ mature oligodendrocyte number” value of the first is higher: -0.961 for the first, -4.1 for the second.

First: CCCCc1ccc(C(=O)O)nc1 [Fusaric acid]
Second: NCCc1ccc(O)cc1 [4-Hydroxyphenethylamine hydrochloride]
The “MBP+ mature oligodendrocyte number” value of the first is lower: -0.648 for the first, 0.182 for the second.

Going from OC1CCCCC1N1CCC(c2ccccc2)CC1 (racemic) [(±)-Vesamicol hydrochloride] to CCCN1CCC[C@H](c2cccc(O)c2)C1 [R(+)-3PPP hydrochloride], the “MBP+ mature oligodendrocyte number” value falls from 15.7 to 1.07.

N.N.[Cl][Pt][Cl] [Cisplatin] and Clc1cc(I)cc(Cl)c1NC1=NCCN1 [p-Iodoclonidine hydrochloride] are within error of each other in “MBP+ mature oligodendrocyte number” value: 1.09 ± 2.6 for the first, 0.343 for the second.

Going from CC(=O)Nc1ccc(Cc2ccc(NC(C)=O)cc2)cc1 to CC(=O)Nc1ccc(OC[C@](C)(O)C(=O)Nc2ccc([N+](=O)[O-])c(C(F)(F)F)c2)cc1 [Andarine], the “MBP+ mature oligodendrocyte number” value falls from 2.55 to 2.12.

Compared with C[N+](C)(C)CC#CCOC(=O)Nc1cccc(Cl)c1, CCN(C)C(=O)Oc1cccc([C@H](C)N(C)C)c1 [Rivastigmine Tartrate] is higher in “MBP+ mature oligodendrocyte number” value: -0.629 for the first, 0.793 for the second.

Compared with C[C@H]1CCC/C=C/[C@@H]2C[C@H](O)C[C@H]2[C@H](O)/C=C/C(=O)O1 [Brefeldin A], C[C@]12CC[C@H](O)C[C@@H]1CC[C@@H]1[C@@H]2CC[C@]2(C)C(=O)CC[C@@H]12 [Epiandrosterone] is higher in “MBP+ mature oligodendrocyte number” value: less than -6.35 for the first, -5.45 for the second.

Compared with Cc1ncc(CNC(=O)N(CCCl)N=O)c(N)n1 [Nimustine hydrochloride], CC(C)N(CCNC(=O)CN1CCCC1=O)C(C)C [Pramiracetam] is higher in “MBP+ mature oligodendrocyte number” value: -1.77 for the first, -0.556 for the second.

Going from COc1ccc2[nH]cc(CCN)c2c1 [O-Methylserotonin hydrochloride] to NCCc1c[nH]c2ccccc12 [Tryptamine hydrochloride], the “MBP+ mature oligodendrocyte number” value rises from -1.93 to -0.433.

First: CC[C@@]1(O)C(=O)OCc2c1cc1n(c2=O)Cc2cc3ccccc3nc2-1 [(S)-(+)-Camptothecin]
Second: C#C[C@]1(O)CC[C@H]2[C@@H]3CCC4=Cc5nc6nc7ccccc7n6cc5C[C@]4(C)[C@H]3CC[C@@]21C
The “MBP+ mature oligodendrocyte number” value of the first is lower: less than -4.47 for the first, -1.21 for the second.

First: CCNC(=O)C[C@@H]1N=C(c2ccc(Cl)cc2)c2cc(OC)ccc2-n2c(C)nnc21
Second: CN1c2ccccc2C(NCCCCCCC(=O)O)c2ccc(Cl)cc2S1(=O)=O (centres undefined) [Tianeptine sodium]
The “MBP+ mature oligodendrocyte number” value of the first is lower: -6.27 for the first, 2.2 for the second.

Compared with NC(CCP(=O)(O)O)C(=O)O (racemic) [(±)-2-Amino-4-phosphonobutyric acid], NCCCP(=O)(O)O [3-Aminopropylphosphonic acid] is lower in “MBP+ mature oligodendrocyte number” value: -0.236 for the first, -0.825 for the second.

First: CC1C2Cc3ccc(O)cc3C1(C)CCN2CC1CC1 (single isomer, unassigned; (+)) [(+)-Cyclazocine]
Second: CCCN(CCC)C1CCc2ccc(O)cc2C1 (stereo not drawn) [R-(+)-7-Hydroxy-DPAT hydrobromide]
The “MBP+ mature oligodendrocyte number” value of the first is higher: 0.398 for the first, -0.125 for the second.

Compared with C[N+]1(C)[C@@H]2CC[C@H]1C[C@@H](OC(=O)C(CO)c1ccccc1)C2 (some centres undefined) [Atropine methyl bromide], C[N+]1(C)[C@@H]2C[C@@H](OC(=O)[C@H](CO)c3ccccc3)C[C@H]1[C@@H]1O[C@@H]12 [Methscopolamine] is lower in “MBP+ mature oligodendrocyte number” value: -0.983 for the first, -1.19 for the second.

Compared with C[N+](C)(C)CCCCCCCCCC[N+](C)(C)C [Decamethonium dibromide], CNCCc1c[nH]c2ccc(O)cc12 [N-omega-Methyl-5-hydroxytryptamine oxalate salt] is lower in “MBP+ mature oligodendrocyte number” value: 0.921 for the first, -0.323 for the second.

Compared with N=C(N)c1ccc(CS(=O)(=O)F)cc1 [4-Amidinophenylmethanesulfonyl fluoride hydrochloride], NNC(=O)c1ccc(O)cc1 [4-Hydroxybenzhydrazide] is higher in “MBP+ mature oligodendrocyte number” value: -0.951 for the first, -0.805 for the second.

Going from O=C(O)CNC(=O)c1c(O)c2ccccc2n(Cc2ccccc2)c1=O to CC(CCc1ccccc1)NC(C)C(O)c1ccc(O)cc1 (centres undefined) [Nylidrin hydrochloride], the “MBP+ mature oligodendrocyte number” value falls from 2.41 to 0.539.

Going from C[C@]12CC[C@H]3[C@@H](CC[C@@]45O[C@@H]4C(O)=C(C#N)C[C@]35C)[C@@H]1CC[C@@H]2O [Trilostane] to C[C@@H]1O[C@@H](O[C@H]2C[C@@H](O)[C@]3(CO)[C@H]4[C@H](O)C[C@]5(C)[C@@H](C6=CC(=O)OC6)CC[C@]5(O)[C@@H]4CC[C@]3(O)C2)[C@H](O)[C@H](O)[C@H]1O [Ouabain], the “MBP+ mature oligodendrocyte number” value rises from 0.109 to 10.3 ± 9.9.

First: COc1ccc(Cc2nccc3cc(OC)c(OC)cc23)cc1OC [Papaverine hydrochloride]
Second: C=C(C)[C@H]1Cc2c(ccc3c2O[C@@H]2COc4cc(OC)c(OC)cc4[C@@H]2C3=O)O1 [Rotenone]
The “MBP+ mature oligodendrocyte number” value of the first is higher: 10.5 for the first, less than -3.85 for the second.

Compared with CNCC(=O)c1ccc(O)c(O)c1 [Adrenalone HCl], CC(N)Cc1c[nH]c2ccc(O)cc12 (stereo not drawn) [alpha-Methyl-5-hydroxytryptamine maleate] is lower in “MBP+ mature oligodendrocyte number” value: 4.47 for the first, -0.284 for the second.

First: O=C[C@H](Cl)[C@@H](O)[C@H](O)[C@H](O)CO [2-Chloro-2-deoxy-D-glucose]
Second: NCC(O)c1ccc(O)cc1 (racemic) [(+,-)-Octopamine HCl]
The “MBP+ mature oligodendrocyte number” value of the first is lower: -0.387 for the first, 1.14 for the second.

First: NNC(N)=O [Semicarbazide hydrochloride]
Second: COC(=O)C1=CCCN(C)C1 [Arecoline hydrobromide]
The “MBP+ mature oligodendrocyte number” value of the first is lower: 0.539 for the first, 0.706 for the second.

First: COC(=O)C1=CCCN(C)C1 [Arecoline]
Second: C[N+]1(C)CCN(c2ccccc2)CC1 [1,1-Dimethyl-4-phenyl-piperazinium iodide]
The “MBP+ mature oligodendrocyte number” value of the first is higher: 2.8 for the first, -1.43 for the second.

Compared with Fc1ccc(C(OCCN2CCN(CCCc3ccccc3)CC2)c2ccc(F)cc2)cc1, O=C(O[C@H]1C[N+]2(CCCOc3ccccc3)CCC1CC2)C(O)(c1cccs1)c1cccs1 [Aclidinium Bromide] is higher in “MBP+ mature oligodendrocyte number” value: less than -4.47 for the first, 10.7 for the second.

Going from C[C@](O)(COc1ccc(C#N)cc1)C(=O)Nc1ccc(C#N)c(C(F)(F)F)c1 to CN1CCC[C@@H]1Cc1c[nH]c2ccc(Nc3ncccc3[N+](=O)[O-])cc12, the “MBP+ mature oligodendrocyte number” value falls from 3.69 to -2.28.

First: c1ccc(C2(c3ccccc3)CC2C2=NCCN2)cc1 (centres undefined) [Cibenzoline succinate]
Second: C[C@]12N[C@H](Cc3ccccc31)c1ccccc12 [MK-801 (Dizocilpine)]
The “MBP+ mature oligodendrocyte number” value of the first is higher: -1.7 for the first, -2.12 for the second.

Going from O=C1CCCN1CC#CCN1CCCC1 [Oxotremorine sesquifumarate salt] to CN(C(=O)Cc1ccc(Cl)c(Cl)c1)C(CN1CCCC1)c1cccc(OCC(=O)O)c1 (centres undefined) [ICI 204,448 hydrochloride], the “MBP+ mature oligodendrocyte number” value rises from -0.637 to 2.89.

Compared with CCN1C[C@]2(COC)[C@H](O)C[C@H](OC)[C@@]34[C@@H]5C[C@@]6(O)[C@H](OC(=O)c7ccccc7)[C@@H]5[C@@](OC(C)=O)([C@@H]([C@H](OC)[C@H]23)[C@@H]14)[C@@H](O)[C@@H]6OC [Aconitine], C[N+]1(C)[C@@H]2C[C@@H](OC(=O)[C@H](CO)c3ccccc3)C[C@H]1[C@@H]1O[C@@H]12 [(-)-Scopolamine methyl bromide] is lower in “MBP+ mature oligodendrocyte number” value: 0.196 for the first, -1.5 for the second.

CNc1ccc2oc(C[C@H]3O[C@@]4(CC[C@H]3C)O[C@H]([C@H](C)C(=O)c3ccc[nH]3)[C@H](C)C[C@H]4C)nc2c1C(=O)O [Calcimycin] and CC[C@@H]1/C=C/C=C/C[C@H](C)[C@H](O)[C@](C)(O)C(=O)[C@H](C)[C@@H](O)[C@H](C)C(=O)[C@H](C)[C@@H](O)[C@H](C)/C=C/C(=O)O[C@H]2[C@@H](C)[C@@H](CC1)O[C@@]1(CC[C@@H](C)[C@@H](C[C@H](C)O)O1)[C@@H]2C [Oligomycin A] cannot be ordered by “MBP+ mature oligodendrocyte number” value: less than -3.34 for the first, less than -6.7 for the second.

Compared with c1ccc2c(c1)[I+]c1ccccc1-2 [Diphenyleneiodonium chloride], NC(=O)COc1c(F)cc(SCCNS(=O)(=O)c2ccccc2)cc1F is higher in “MBP+ mature oligodendrocyte number” value: less than -4.47 for the first, -1.7 for the second.

Compared with CC(N)Cc1cccc(C(F)(F)F)c1 (single isomer, unassigned; (+)) [(+)-Norfenfluramine hydrochloride], C[C@@H](N)Cc1cnc[nH]1 [Histamine, R(-)-alpha-methyl-, dihydrochloride] is lower in “MBP+ mature oligodendrocyte number” value: 0.753 for the first, 0.136 for the second.

First: CCC1(c2ccc(N)cc2)CCC(=O)NC1=O (centres undefined) [Aminoglutethimide]
Second: NCC(O)c1ccc(O)cc1 (racemic) [(±)-Octopamine hydrochloride]
The “MBP+ mature oligodendrocyte number” value of the first is lower: -1.1 for the first, 0.186 for the second.

First: CCn1cc(C(=O)O)c(=O)c2cc3c(cc21)OCO3 [Oxolinic acid]
Second: Clc1ccc(N2C[C@H]3CC[C@@H](C2)N3)nn1
The “MBP+ mature oligodendrocyte number” value of the first is lower: -0.951 for the first, 1.03 for the second.
